Experimental data published in the supplement of paper PMC8728848.
The list shows a part of the results.

How the values were obtained:
Assay in all cases: glycan array binding signal (z-score within array); higher = stronger binding
Details in all cases: glycan notation: IUPAC condensed, linker removed; mutation: D325N
[1] = target: Gal(b1-3)[Fuc(a1-4)]GlcNAc(b1-3)Gal(b1-4)[Fuc(a1-3)]GlcNAc
In short: (§1)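 Columns mapping to the same glycan were averaged after glycan names were converted to IUPAC-condensed notation. The data come from 3228 arrays in the Consortium for Functional Glycomics database, limited to those with an available protein sequence. Binding is reported as a within-array Z-score averaged across arrays of one protein sequence and across linkers.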

[2] = target: Gal(b1-3)[GlcNAc(b1-6)]GalNAc
In short: as §1

[3] = target: Gal(b1-3)[Neu5Ac(a2-6)]GalNAc
In short: as §1

[4] = target: Gal(b1-3)[Neu5Ac(a2-6)]GlcNAc(b1-6)Gal(b1-4)Glc
In short: as §1

[5] = target: Gal(b1-3)[Neu5Ac(b2-6)]GalNAc
In short: as §1

[6] = target: Gal(b1-4)GalNAc(a1-3)[Fuc(a1-2)]Gal(b1-4)GlcNAc
In short: as §1

[7] = target: Gal(b1-4)GalNAc(b1-3)[Fuc(a1-2)]Gal(b1-4)GlcNAc
In short: as §1

Gal(b1-4)Glc = target: Gal(b1-4)Glc
In short: as §1

Gal(b1-4)Glc6S = target: Gal(b1-4)Glc6S
In short: as §1

Gal(b1-4)GlcNAc = target: Gal(b1-4)GlcNAc
In short: as §1

[8] = target: Gal(b1-4)GlcNAc(a1-6)Gal(b1-4)GlcNAc
In short: as §1

[9] = target: Gal(b1-4)GlcNAc(b1-2)Man(a1-3)[Gal(b1-4)GlcNAc(b1-2)Man(a1-6)]Man(b1-4)GlcNAc(b1-4)GlcNAc
In short: as §1

[10] = target: Gal(b1-4)GlcNAc(b1-3)Gal(b1-3)GlcNAc
In short: as §1

[11] = target: Gal(b1-4)GlcNAc(b1-3)Gal(b1-4)Glc
In short: as §1

[12] = target: Gal(b1-4)GlcNAc(b1-3)Gal(b1-4)GlcNAc
In short: as §1

[13] = target: Gal(b1-4)GlcNAc(b1-3)Gal(b1-4)GlcNAc(b1-3)Gal(b1-4)GlcNAc
In short: as §1

[14] = target: Gal(b1-4)GlcNAc(b1-3)Gal(b1-4)[Fuc(a1-3)]GlcNAc(b1-3)Gal(b1-4)[Fuc(a1-3)]GlcNAc
In short: as §1

[15] = target: Gal(b1-4)GlcNAc(b1-3)GalNAc
In short: as §1

[16] = target: Gal(b1-4)GlcNAc(b1-3)[Gal(b1-4)GlcNAc(b1-6)]Gal(b1-4)GlcNAc
In short: as §1

[17] = target: Gal(b1-4)GlcNAc(b1-3)[GlcNAc(b1-6)]Gal(b1-4)GlcNAc
In short: as §1

[18] = target: Gal(b1-4)GlcNAc(b1-6)Gal(b1-4)GlcNAc
In short: as §1

[19] = target: Gal(b1-4)GlcNAc(b1-6)Gal(b1-4)GlcNAc(b1-6)GalNAc
In short: as §1

[20] = target: Gal(b1-4)GlcNAc(b1-6)GalNAc
In short: as §1

[21] = target: Gal(b1-4)GlcNAc(b1-6)[Gal(b1-3)]GalNAc
In short: as §1

Gal3S(b1-3)GalNAc = target: Gal3S(b1-3)GalNAc
In short: as §1

Gal3S(b1-3)GlcNAc = target: Gal3S(b1-3)GlcNAc
In short: as §1

[22] = target: Gal3S(b1-3)[Fuc(a1-4)]GlcNAc
In short: as §1

Gal3S(b1-4)Glc = target: Gal3S(b1-4)Glc
In short: as §1

Gal3S(b1-4)Glc6S = target: Gal3S(b1-4)Glc6S
In short: as §1

Gal3S(b1-4)GlcNAc = target: Gal3S(b1-4)GlcNAc
In short: as §1

Gal3S(b1-4)GlcNAc6S = target: Gal3S(b1-4)GlcNAc6S
In short: as §1

[23] = target: Gal3S(b1-4)[Fuc(a1-3)]Glc
In short: as §1

Gal3S4S(b1-4)GlcNAc = target: Gal3S4S(b1-4)GlcNAc
In short: as §1

Gal3S6S(b1-4)GlcNAc = target: Gal3S6S(b1-4)GlcNAc
In short: as §1

Gal3S6S(b1-4)GlcNAc6S = target: Gal3S6S(b1-4)GlcNAc6S
In short: as §1

Gal4S(b1-4)GlcNAc = target: Gal4S(b1-4)GlcNAc
In short: as §1

Gal4S6S(b1-4)GlcNAc = target: Gal4S6S(b1-4)GlcNAc
In short: as §1

B1: Surfactant Protein D (Human); Neck + Carbohydrate Recognition Domain (NCRD) (Homo sapiens) (protein)
chain: MLLFLLSALVLLTQPLGYLEAEMKTYSHRTMPSACTLVMCSSVESGLPGRDRDGREGPRGEKGDPGLPGAAGQAGMPGQAGPVGPKGDNGSVGEPGPKGDTGPSGPPGPPGVPGPAGREGALGKQGNIGPQGKPGPKGEAGPKGEVGAPGMQGSAGARGLAGPKGERGVPGERGVPGNTGAAGSAGAMGPQGSPGARGPPGLKGDKGIPGDKGAKGESGLPDVASLRQQVEALQGQVQHLQAAFSQYKKVELFPNGQSVGEKIFKTAQFVKPFTEAQLLCTQAGGQLASPRSAAENAALQQLVVAKNEAAFLSMTDSKTEGKFTYPTGESLVYSNWAPGEPNDNGGSEDCVEIFTNGKWNDRACGEKRLVVCEF
glycan array binding signal (z-score) [1]: -0.113
glycan array binding signal (z-score) [2]: -0.142
glycan array binding signal (z-score) [3]: -0.152
glycan array binding signal (z-score) [4]: -0.128
glycan array binding signal (z-score) [5]: -0.139
glycan array binding signal (z-score) [6]: -0.106
glycan array binding signal (z-score) [7]: -0.103
glycan array binding signal (z-score) (Gal(b1-4)Glc): -0.135
glycan array binding signal (z-score) (Gal(b1-4)Glc6S): -0.121
glycan array binding signal (z-score) (Gal(b1-4)GlcNAc): -0.129
glycan array binding signal (z-score) [8]: -0.123
glycan array binding signal (z-score) [9]: -0.099
glycan array binding signal (z-score) [10]: -0.145
glycan array binding signal (z-score) [11]: -0.124
glycan array binding signal (z-score) [12]: -0.164
glycan array binding signal (z-score) [13]: -0.13
glycan array binding signal (z-score) [14]: -0.105
glycan array binding signal (z-score) [15]: -0.064
glycan array binding signal (z-score) [16]: -0.139
glycan array binding signal (z-score) [17]: -0.139
glycan array binding signal (z-score) [18]: -0.147
glycan array binding signal (z-score) [19]: -0.132
glycan array binding signal (z-score) [20]: -0.138
glycan array binding signal (z-score) [21]: -0.128
glycan array binding signal (z-score) (Gal3S(b1-3)GalNAc): -0.149
glycan array binding signal (z-score) (Gal3S(b1-3)GlcNAc): -0.149
glycan array binding signal (z-score) [22]: -0.118
glycan array binding signal (z-score) (Gal3S(b1-4)Glc): -0.14
glycan array binding signal (z-score) (Gal3S(b1-4)Glc6S): -0.151
glycan array binding signal (z-score) (Gal3S(b1-4)GlcNAc): -0.127
glycan array binding signal (z-score) (Gal3S(b1-4)GlcNAc6S): -0.089
glycan array binding signal (z-score) [23]: -0.152
glycan array binding signal (z-score) (Gal3S4S(b1-4)GlcNAc): -0.037
glycan array binding signal (z-score) (Gal3S6S(b1-4)GlcNAc): -0.079
glycan array binding signal (z-score) (Gal3S6S(b1-4)GlcNAc6S): -0.121
glycan array binding signal (z-score) (Gal4S(b1-4)GlcNAc): -0.149
glycan array binding signal (z-score) (Gal4S6S(b1-4)GlcNAc): -0.138
